Assay results published in PubChem BioAssay AID2546 (National Center for Advancing Translational Sciences (NCATS), 2010).
Out of some 310,000 compounds screened, about 11,000 (3.5%) were called active. Inconclusive means that the source gave no clear call. Such entries were picked first, then a sample of the others. The call rests on the fitted dose curve; in most records, active means well fitted inhibition curve with a large enough effect; inconclusive means small, poorly fitted or top-dose-only effect, or effect the other way; inactive means flat fitted curve, though single readings scatter. No potency is given beside an inconclusive call; the fits are too rough.
On the % scale 0 is the no-effect control and ±100 the full control effect; potency means the concentration at half of the fitted maximal effect; tags describe the fitted curve by direction and shape.

Assay: VP16 counterscreen qHTS for inhibitors of ROR gamma transcriptional activity;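 further: Gal4-VP16 expression switched on by copper sulfate through the metallothionein promoter; nearly all actives have a fitted effect of over 50% in size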
Details: Drosophila S2 Gal4-VP16 UAS-luciferase, luminescence, 20 h; activity, negative = inhibition: at 53.6 µM (top of the series)
In the case of `Cn1c(CNC(=O)c2ccc(Cl)cc2)nnc1SCC(=O)N1CCOCC1`, the “activity, negative = inhibition” value is reported as inactive: -1.38%. In the case of `Cc1ccccc1NC1=NC(=S)N(c2ccccc2)C12CCCCC2`, the Potency is reported as inconclusive [inhibitor, single point]. With `CCOC(=O)N1CCC(=NNC(=O)c2cc3ccccc3cc2O)CC1` the Potency was inconclusive [inhibitor, single point]. In the case of `CCc1ccc(N2CC(C(=O)N/N=C/c3cccc([N+](=O)[O-])c3)CC2=O)cc1` (stereo not drawn), the “activity, negative = inhibition” value is reported as inactive: -0.713%. With `CCCc1nnc(NC(=O)C2CCN(C(=O)C3CC(=O)N(c4ccc(C)cc4)C3)CC2)s1` (stereo not drawn) the “activity, negative = inhibition” value was inactive: -10.5%. For `CN(C)S(=O)(=O)c1ccc(Cl)c(C(=O)Nc2cccc([N+](=O)[O-])c2)c1`, the “activity, negative = inhibition” value was inactive: 5.19%. For `Cc1nn(C)c(C(=O)NCc2ccc(Cl)cc2)c1Cl`, the Potency was active: 3.98 µM. With `Cc1ccnc(NC(=S)NC(=O)c2ccco2)c1` the Potency was inconclusive [inhibitor, single point]. For `CC(=O)c1ccc(NC(=S)NNC(=O)NC2CCCCC2)cc1`, the Potency was inconclusive [activator, full curve]. For `COc1cc2[nH]c(=S)nc(NCCc3ccc(C)cc3)c2cc1OC`, the Potency was active: 6.31 µM. With `O=c1oc2c(O)c(O)cc3c(=O)oc4c(O)c(O)cc1c4c23` the Potency was inconclusive [inhibitor, single point]. For `Cc1cccc(OCCNc2cc(N3CCOCC3)ccc2[N+](=O)[O-])c1`, the “activity, negative = inhibition” value was inactive: 3.34%. With `O=C(CSCCO)Nc1ccc(C23CC4CC(CC(C4)C2)C3)cc1` the Potency was active: 8.91 µM. With `c1ccc(-c2ccc(N3CCCC4(CCNCC4)C3)cc2)cc1` the Potency was inconclusive [inhibitor, single point]. In the case of `CCN(CC)C(=O)Cn1c(=O)n(CC(=O)N2CCCCC2)c(=O)c2sccc21`, the “activity, negative = inhibition” value is reported as inactive: -3.91%. With `O=c1c2c(nc3c(-c4ccc(Cl)cc4)c[nH]n13)CCC2` the Potency was inconclusive [inhibitor, single point]. With `O=C(Cc1ccc(-c2ccccc2)cc1)Nc1ncccc1O` the Potency was inconclusive [inhibitor, single point]. For `Cc1c(CCC(=O)NCC(=O)O)c(=O)oc2cc3occ(-c4ccccc4)c3cc12`, the Potency was inconclusive [inhibitor, partial curve, poor fit]. With `CC1CSc2ccccc2NC1=S` (stereo not drawn) the Potency was active: 7.94 µM. With `CN1c2ccccc2C(C)(C)C12C=Nc1c(ccc3ccccc13)O2` (stereo not drawn) the Potency was active: 20 µM. In the case of `CCOC(=O)C(CC)(CC)C(=O)/C=C/c1ccc(Br)cc1`, the Potency is reported as inconclusive [inhibitor, single point]. With `COCCCNC(=O)C(C#N)c1nc2ccccc2nc1N1CCN(Cc2ccccc2)CC1` (stereo not drawn) the “activity, negative = inhibition” value was inactive: 3.04%. With `O=C(N/N=C/C(Br)=C/c1ccccc1)NC1CCCCC1` the Potency was inconclusive [inhibitor, single point]. With `N#C/C(=C\c1ccccc1[N+](=O)[O-])C(=O)NCc1ccccc1` the Potency was inconclusive [inhibitor, partial curve]. For `CCC(=O)Nc1nnc(SCC(=O)Nc2cccc(Cl)c2)s1`, the “activity, negative = inhibition” value was inactive: -1.74%. With `c1coc(CNc2ncnc3c2oc2ccccc23)c1` the Potency was inconclusive [inhibitor, single point]. For `CCOc1cc(/C=N/NC(=O)C(C)Sc2ccccc2)ccc1O` (stereo not drawn), the “activity, negative = inhibition” value was inactive: 1.47%. With `CCCc1cc(C(=O)Cc2ccc(F)cc2)c(O)cc1O` the Potency was inconclusive [inhibitor, single point]. With `Cc1nonc1CC(=O)NC1CC(C)(C)Cc2c1cnn2-c1ccc(F)cc1` (stereo not drawn) the Potency was inconclusive [inhibitor, partial curve, poor fit]. For `Cc1cccc2cc(-c3nc4ccc(C(=O)O)cc4[nH]3)c(=O)oc12`, the Potency was active: 5.01 µM. For `CC1Sc2ccc(S(=O)(=O)CCC(=O)NC3CCCCC3C)cc2NC1=O` (stereo not drawn), the “activity, negative = inhibition” value was inactive: -6.91%. In the case of `CC(=O)N=c1sc2nc3ccccc3nc2n1N(C(C)=O)C(C)=O`, the Potency is reported as inconclusive [inhibitor, single point]. For `CCc1nccn1CCC(=O)NC1CC(C)(C)Cc2c1cnn2-c1cccc(F)c1` (stereo not drawn), the “activity, negative = inhibition” value was inactive: 1.87%. With `COc1ccc(C(=O)NC(=S)N2CC(C)OC(C)C2)cc1` (stereo not drawn) the Potency was active: 6.31 µM. In the case of `C/C(Cc1ccccc1)=N\NC(=O)c1cc(C(C)(C)C)[nH]n1`, the activity, negative = inhibition is reported as inactive: -3.21% [at 10 µM]. In the case of `Cc1c(C)n(C(=O)CSc2ncn[nH]2)c2ccccc12`, the Potency is reported as inconclusive [inhibitor, single point]. For `COc1ccc(CNC(=O)CCNS(=O)(=O)c2cc(Br)cnc2N)cc1`, the “activity, negative = inhibition” value was inactive: -12.4%. With `CC1=NN(C(=O)CCc2ccc3c(c2)OCO3)C(O)(C(F)(F)F)C1` (stereo not drawn) the Potency was active: 2.24 µM. In the case of `C=CCC(C)(O)c1ccsc1` (stereo not drawn), the “activity, negative = inhibition” value is reported as inactive: -2.51%. With `Cc1ccc(-c2c(C(=O)N(C)Cc3ccccc3)oc(=O)c3ccccc23)cc1` the Potency was inconclusive [inhibitor, single point]. For `CCOC(=O)N1CCN(S(=O)(=O)c2ccc(C(=O)Nc3nnc(CC)o3)cc2)CC1`, the Potency was inconclusive [inhibitor, partial curve]. For `CCOC(=O)CN1C(=O)C(=O)c2cccc(C)c21`, the “activity, negative = inhibition” value was inactive: 3.07%. For `COc1ccc(C(=O)c2c(C(F)(F)F)oc3c2C(=O)c2ccccc2C3=O)cc1OC`, the Potency was inconclusive [inhibitor, full curve, poor fit]. With `Cc1oc(C(C)(C)C)cc1C(=O)Nc1ccc2c(c1)OCCO2` the Potency was inconclusive [activator, single point]. In the case of `CC(C)NS(=O)(=O)c1ccc(NC(=O)C(C)Oc2ccc(C(=O)c3ccccc3)cc2)cc1` (stereo not drawn), the Potency is reported as active: 7.08 µM. For `COCCN1C(=O)/C(=C/c2ccc(OCc3ccc(C(=O)O)cc3)c(OC)c2)SC1=Nc1ccccc1`, the Potency was inconclusive [inhibitor, single point]. For `NNC(=O)CNC(c1ccccc1)c1cc(Br)ccc1NC(=O)CCN1CCOCC1` (stereo not drawn), the Potency was inconclusive [inhibitor, full curve, poor fit]. For `CC(C)Cn1c(S(=O)(=O)O)nc2ccccc21`, the Potency was inconclusive [inhibitor, single point].
